Assay results: paper PMC9911399, “Two distinct binding modes provide the RNA-binding protein RbFox with extraordinary sequence specificity”
Where a chain is given by its changes, count along the chain named. The list shows a part of the results.

T1: RBFOX1 RRM RbFoxmut (Fox-RRM*) (Homo sapiens, UniProt Q9NWB1 109-208, R118D;E147R;N151S;E152T)
T1 sequence: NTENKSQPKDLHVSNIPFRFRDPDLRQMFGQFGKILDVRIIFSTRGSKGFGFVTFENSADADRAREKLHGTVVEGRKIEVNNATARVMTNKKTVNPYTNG

B1: UGAGCGA (DNA:RNA)
RNA: GGGAGACCGGAAUUCAGAUUGUCCUGAGCGAUUAAAUCCCGUCGUAGCCACCA
DNA 1: CAATCTGAATTCCGGTCTCCC
DNA 2: TGGTGGCTACGACGGGATT
B2: CAUCGUC (DNA:RNA)
RNA: GGGAGACCGGAAUUCAGAUUGUCCCAUCGUCUUAAAUCCCGUCGUAGCCACCA
DNA 1: CAATCTGAATTCCGGTCTCCC
DNA 2: TGGTGGCTACGACGGGATT
B3: AGUCUCC (DNA:RNA)
RNA: B2 RNA with C25A, A26G, G29U, U30C
DNA 1: CAATCTGAATTCCGGTCTCCC
DNA 2: TGGTGGCTACGACGGGATT
B4: UUCAGCA (DNA:RNA)
RNA: B1 RNA with G26U, A27C, G28A, C29G, G30C
DNA 1: CAATCTGAATTCCGGTCTCCC
DNA 2: TGGTGGCTACGACGGGATT
B5: ACAUGAC (DNA:RNA)
RNA: B2 RNA with C25A, A26C, U27A, C28U, U30A
DNA 1: CAATCTGAATTCCGGTCTCCC
DNA 2: TGGTGGCTACGACGGGATT
B6: GGACACU (DNA:RNA)
RNA: B1 RNA with U25G, G28C, C29A, G30C, A31U
DNA 1: CAATCTGAATTCCGGTCTCCC
DNA 2: TGGTGGCTACGACGGGATT
B7: GGGCACA (DNA:RNA)
RNA: B1 RNA with U25G, A27G, G28C, C29A, G30C
DNA 1: CAATCTGAATTCCGGTCTCCC
DNA 2: TGGTGGCTACGACGGGATT
B8: AAAUUAA (DNA:RNA)
RNA: B1 RNA with U25A, G26A, G28U, C29U, G30A
DNA 1: CAATCTGAATTCCGGTCTCCC
DNA 2: TGGTGGCTACGACGGGATT
B9: ACUGGGG (DNA:RNA)
RNA: B2 RNA with C25A, A26C, C28G, U30G, C31G
DNA 1: CAATCTGAATTCCGGTCTCCC
DNA 2: TGGTGGCTACGACGGGATT
B10: GUCAGGA (DNA:RNA)
RNA: B1 RNA with U25G, G26U, A27C, G28A, C29G
DNA 1: CAATCTGAATTCCGGTCTCCC
DNA 2: TGGTGGCTACGACGGGATT
B11: GUUACCU (DNA:RNA)
RNA: B2 RNA with C25G, A26U, C28A, G29C, U30C, C31U
DNA 1: CAATCTGAATTCCGGTCTCCC
DNA 2: TGGTGGCTACGACGGGATT
B12: UAGGGCU (DNA:RNA)
RNA: B2 RNA with C25U, U27G, C28G, U30C, C31U
DNA 1: CAATCTGAATTCCGGTCTCCC
DNA 2: TGGTGGCTACGACGGGATT
B13: AGACGUG (DNA:RNA)
RNA: B2 RNA with C25A, A26G, U27A, C31G
DNA 1: CAATCTGAATTCCGGTCTCCC
DNA 2: TGGTGGCTACGACGGGATT
B14: CUUUUGC (DNA:RNA)
RNA: B2 RNA with A26U, C28U, G29U, U30G
DNA 1: CAATCTGAATTCCGGTCTCCC
DNA 2: TGGTGGCTACGACGGGATT
B15: ACAACUG (DNA:RNA)
RNA: B1 RNA with U25A, G26C, G28A, G30U, A31G
DNA 1: CAATCTGAATTCCGGTCTCCC
DNA 2: TGGTGGCTACGACGGGATT
B16: CAAUUAU (DNA:RNA)
RNA: B2 RNA with U27A, C28U, G29U, U30A, C31U
DNA 1: CAATCTGAATTCCGGTCTCCC
DNA 2: TGGTGGCTACGACGGGATT
B17: ACUGGUU (DNA:RNA)
RNA: B2 RNA with C25A, A26C, C28G, C31U
DNA 1: CAATCTGAATTCCGGTCTCCC
DNA 2: TGGTGGCTACGACGGGATT
B18: ACGGCAC (DNA:RNA)
RNA: B1 RNA with U25A, G26C, A27G, G30A, A31C
DNA 1: CAATCTGAATTCCGGTCTCCC
DNA 2: TGGTGGCTACGACGGGATT
B19: AGCGACG (DNA:RNA)
RNA: B1 RNA with U25A, A27C, C29A, G30C, A31G
DNA 1: CAATCTGAATTCCGGTCTCCC
DNA 2: TGGTGGCTACGACGGGATT
B20: UUGCAGC (DNA:RNA)
RNA: B2 RNA with C25U, A26U, U27G, G29A, U30G
DNA 1: CAATCTGAATTCCGGTCTCCC
DNA 2: TGGTGGCTACGACGGGATT
B21: UACGUGC (DNA:RNA)
RNA: B1 RNA with G26A, A27C, C29U, A31C
DNA 1: CAATCTGAATTCCGGTCTCCC
DNA 2: TGGTGGCTACGACGGGATT
B22: GAAGGUC (DNA:RNA)
RNA: B2 RNA with C25G, U27A, C28G
DNA 1: CAATCTGAATTCCGGTCTCCC
DNA 2: TGGTGGCTACGACGGGATT
B23: AACGGAA (DNA:RNA)
RNA: B2 RNA with C25A, U27C, C28G, U30A, C31A
DNA 1: CAATCTGAATTCCGGTCTCCC
DNA 2: TGGTGGCTACGACGGGATT
B24: AAUUCGU (DNA:RNA)
RNA: B2 RNA with C25A, C28U, G29C, U30G, C31U
DNA 1: CAATCTGAATTCCGGTCTCCC
DNA 2: TGGTGGCTACGACGGGATT
B25: GUUGCGC (DNA:RNA)
RNA: B1 RNA with U25G, G26U, A27U, A31C
DNA 1: CAATCTGAATTCCGGTCTCCC
DNA 2: TGGTGGCTACGACGGGATT
B26: UUCCGGU (DNA:RNA)
RNA: B2 RNA with C25U, A26U, U27C, U30G, C31U
DNA 1: CAATCTGAATTCCGGTCTCCC
DNA 2: TGGTGGCTACGACGGGATT
B27: UUGACAC (DNA:RNA)
RNA: B1 RNA with G26U, A27G, G28A, G30A, A31C
DNA 1: CAATCTGAATTCCGGTCTCCC
DNA 2: TGGTGGCTACGACGGGATT
B28: GACACUU (DNA:RNA)
RNA: B2 RNA with C25G, U27C, C28A, G29C, C31U
DNA 1: CAATCTGAATTCCGGTCTCCC
DNA 2: TGGTGGCTACGACGGGATT
B29: UACUUCG (DNA:RNA)
RNA: B2 RNA with C25U, U27C, C28U, G29U, U30C, C31G
DNA 1: CAATCTGAATTCCGGTCTCCC
DNA 2: TGGTGGCTACGACGGGATT
B30: AUAAUUC (DNA:RNA)
RNA: B2 RNA with C25A, A26U, U27A, C28A, G29U
DNA 1: CAATCTGAATTCCGGTCTCCC
DNA 2: TGGTGGCTACGACGGGATT
B31: AGACGCG (DNA:RNA)
RNA: B2 RNA with C25A, A26G, U27A, U30C, C31G
DNA 1: CAATCTGAATTCCGGTCTCCC
DNA 2: TGGTGGCTACGACGGGATT

Each binder was assayed against T1, RBFOX1 RRM RbFoxmut (Fox-RRM*) (assay: EMSA; HiTS-Eq, 1 nM pool, 10 min; buffer printed only for the single-RNA assays: 10 mM Tris pH 7.5, 150 mM NaCl, 3.4 mM EDTA, 0.001% NP-40, 30 C). Conditions: tags: His6 N-terminal (pET28a); label: 5' 32P.
In short: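 Relative association constants, normalised to the cognate motif, were derived by comparing read counts of each RNA species with those of the control reaction. The RNA sequenced was the free fraction, separated by 8% native PAGE after a 10 min equilibration in 50 µL of 1 nM 5′-radiolabelled RNA (7 randomized nucleotides) with increasing concentrations of purified wild-type or mutant RbFox RRM.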

Binder | binding signal
B1 | 0.0866 KA relative to UGCAUGU
B2 | 0.132 KA relative to UGCAUGU
B3 | 0.0783 KA relative to UGCAUGU
B4 | 0.124 KA relative to UGCAUGU
B5 | 0.0881 KA relative to UGCAUGU
B6 | 0.0497 KA relative to UGCAUGU
B7 | 0.073 KA relative to UGCAUGU
B8 | 0.0964 KA relative to UGCAUGU
B9 | 0.106 KA relative to UGCAUGU
B10 | 0.0603 KA relative to UGCAUGU
B11 | 0.121 KA relative to UGCAUGU
B12 | 0.0664 KA relative to UGCAUGU
B13 | 0.142 KA relative to UGCAUGU
B14 | 0.115 KA relative to UGCAUGU
B15 | 0.067 KA relative to UGCAUGU
B16 | 0.119 KA relative to UGCAUGU

Binder | binding signal
B17 | 0.0929 KA relative to UGCAUGU
B18 | 0.0844 KA relative to UGCAUGU
B19 | 0.115 KA relative to UGCAUGU
B20 | 0.0871 KA relative to UGCAUGU
B21 | 0.136 KA relative to UGCAUGU
B22 | 0.0774 KA relative to UGCAUGU
B23 | 0.103 KA relative to UGCAUGU
B24 | 0.0995 KA relative to UGCAUGU
B25 | 0.137 KA relative to UGCAUGU
B26 | 0.0766 KA relative to UGCAUGU
B27 | 0.0618 KA relative to UGCAUGU
B28 | 0.0571 KA relative to UGCAUGU
B29 | 0.0725 KA relative to UGCAUGU
B30 | 0.0977 KA relative to UGCAUGU
B31 | 0.125 KA relative to UGCAUGU
